Data reported in the RNAGym collection of RNA variant scans (doi:10.1073/pnas.2313332121).
Variants at the background level are over-represented here.

B1: TPR 5TU (parent)
chain: GGAUCUUCUCGAUCUAACAAAAAAGACAAAUCUGCCACAAAGCUUGAGAGCAUCUUCGGAUGCAGAGGCGGCAGCCUUCGGUGGCGCGAUAGCGCCAACGUUCUCAACUAUGACACGCAAAACGCGUGCUCCGUUGAAUGGAGUUUAUCAUG

Variants of: B1
Assay: polymerase ribozyme fitness, log enrichment relative to wild type (log ratio); higher = more active; in vitro selection for triplet polymerase activity
Summary of the method: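 Mutant libraries of each subunit of a heterodimeric triplet polymerase ribozyme were built by PCR and transcribed. Each library went through one round of in vitro selection in triplicate: annealing with biotinylated primer, partner subunit and triplets, frozen incubation at −7 °C, gel excision of extended constructs, streptavidin-bead capture and RT-PCR. Input and output libraries were Illumina-sequenced; only genotypes with ≥10 input reads and ≥1 read per output were kept. Fitness is log2(genotype enrichment/wild-type enrichment), using inverse-variance-weighted replicate averages.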

Variant | polymerase ribozyme fitness (log ratio)
C8G G86A C103U | ≤ -4.2
C8G A64G | ≤ -4.2
C8G A28U C93U | ≤ -4.2
C8U A12G G80A C129G | ≤ -4.2
U9A A20U A28U C79A C87U U139A | ≤ -4.2
U9C A49G A106G C116U G136A A137C G143A U144C U148G | ≤ -4.2
U9A A17U G50C C57U G71C C87A | ≤ -4.2
C8A C87G G88A G143C U145C | ≤ -4.2
C8U U13A C57U C95U G140C | ≤ -4.2
C8U G46C A52C A64C C93G | ≤ -4.2
U9A C85G | ≤ -4.2
C8G A16G A17U A20C A37C G59C U82G C87G A107G A110C U139G | ≤ -4.2
C8G U15G A21G G83U A91G C105U U144C U148A | ≤ -4.2
C8G A49C A52C G68U G80C C87A A113U U134A | ≤ -4.2
C8G U56C G88C A97U C129G A147C | ≤ -4.2
C8U A22C C63U G70U U78C U82A | ≤ -4.2
U9C U44A G81A C87G | ≤ -4.2
U9A A20C A26G A28U G67U U82C U90G G124A U134C U146A | ≤ -4.2
C8U C35G G59C C96A C103A | ≤ -4.2
C8U A22C A26C G50C C85A C116U C118A | ≤ -4.2
U9A A20U C27A A28C G58C G59C | ≤ -4.2
C8A A23G G48U A73G C93U U127A | ≤ -4.2
U9A A16G A66G G86U | ≤ -4.2
C8U A47G | -3.73

Variant | polymerase ribozyme fitness (log ratio)
U9G A52G C72G C96U C105A A115G U127C G133U | ≤ -4.2
C8A A47G A49C G59C A60U G84A C125G | ≤ -4.2
U9C A16U G86U G140A U145G U148A | ≤ -4.2
U9C C43G G86A U101G | ≤ -4.2
C8A G88U C99A | ≤ -4.2
U9C A47C A60G G84C C93A C105G A113U U127C | ≤ -4.2
U9G C85U G88C G117U A119U G141A | ≤ -4.2
C8U C27U G92U U135A U144G U146G C149G | ≤ -4.2
U9A C14A A23U A30C C36A C95U A110U | ≤ -4.2
C8A A41C C76U G84C A119C | ≤ -4.2
U9A C96U A110C | ≤ -4.2
U9G C87A C95A U109A G133U U146G | ≤ -4.2
C8A C72U | ≤ -4.2
U9A A21U A49U C87A C93U U104G U130A | ≤ -4.2
C8U A19U G25C C32G A39G A89U A97G A121C C125G | ≤ -4.2
C8G U13G C116G | -3.71
C8G A17G G25A C54G G71C C87U U90A C96U C132U | ≤ -4.2
C8U U13C A49C C51U G67A G81C G141A | ≤ -4.2
U9A A22G C36U A40C G88U | ≤ -4.2
C8G A20G A21C C32U C132U | ≤ -4.2
U9A A16G U44A G46C U90C A120G | ≤ -4.2
C8G C85G G100A G143C | ≤ -4.2
U9A G50A G94U | ≤ -4.2
U9C A39G A73U C96U | ≤ -4.2

Variant | polymerase ribozyme fitness (log ratio)
C8A A41G U53A C72A C93G U102G U109G | ≤ -4.2
U9A A49C C76A C129U | ≤ -4.2
U9G A26C C38U G133A A147G | ≤ -4.2
C8U C38G G92U C95U C99U U104A U145G | ≤ -4.2
C8A A21G A30C G92A G117A | ≤ -4.2
U9A A17G A20C A37C G59A G70C A137U | ≤ -4.2
C8U U33C A37C A60U C93G | ≤ -4.2
C8U A66C C93U G124A | ≤ -4.2
C8U C63G C87U C129G U139C G143U | ≤ -4.2
C8G A37G G71U U82C G83A U148C | ≤ -4.2
U9C A29U G50U C76U G86U C93U C116G U148C | ≤ -4.2
U9A G74C A91C U130G | ≤ -4.2
U9A A49C A52U | ≤ -4.2
C8G A24C G25C A30U U45A C79G G83U G126U U139G | ≤ -4.2
C8G G59A G92A C132U G141U | ≤ -4.2
U9G C51G G84A G141C | ≤ -4.2
C8G U15A G84U C93G | ≤ -4.2
C8A G58C U82A A98G G136U | ≤ -4.2
C8A U31G G62A C114A G124U U139G | ≤ -4.2
U9G C32A G62A A73G G88A A110G U135G G143A | ≤ -4.2
C8A C93A | ≤ -4.2
C8G C35U A106U A107C | ≤ -4.2
U9C G11C A24G C35U G59U A60U C105G | ≤ -4.2
C8U A19G U55A A91G C99U | ≤ -4.2

Variant | polymerase ribozyme fitness (log ratio)
C8G C10G U56G G58A C63G U101G A120U | ≤ -4.2
U9C A23C A30C G59U C87A C125U | ≤ -4.2
C8U A41C U55A G68A G86A U90G A113G | ≤ -4.2
C8A C14G A40U G84C U101C U139G | ≤ -4.2
U9C C93A U134C U151A | ≤ -4.2
C8U A73U | -3.97
U9C U13G C18U A21U C38A U44G G68C G92U G94A G133U A142G U144C | ≤ -4.2
U9A G42C U55A A73U G83C G84A G88U | ≤ -4.2
C8U A19U G62A G86C A113C | ≤ -4.2
C8U C14G U53A C63A C93U | ≤ -4.2
C8A C14A A28U C51U C76G U139A G141U | ≤ -4.2
U9A U55G U78G G143C | ≤ -4.2
U9G A24C A66C C72U G83A A110C A119G U134G | ≤ -4.2
C8U A21C G25U A97U | ≤ -4.2
C8U A16G A21G A40U | -4.04
U9A G46U C87A C93U | ≤ -4.2
C8U U53G C87G | ≤ -4.2
C8G C54G C85U A121U C131A G136U A137G | ≤ -4.2
U9G A60U U77G | ≤ -4.2
U9C A28G G58C A91U G126A A142G | ≤ -4.2
C8U G50A C75G A91G C114A | ≤ -4.2
C8A C32G A40U A52U A73U A91U | ≤ -4.2
C8A A39U A47C C87A | ≤ -4.2
C8U A29G A52G U56A U127G | ≤ -4.2

Variant | polymerase ribozyme fitness (log ratio)
C8G C35A C85A U90G A113C | ≤ -4.2
C8U G83A | -2.94
C8G C54U C96G C132G | ≤ -4.2
U9G C54G G62A C75A G81C C93G C96A C103G | ≤ -4.2
U9G A19U A66G C69A C75A C85A G86U A97U C116A C149U | ≤ -4.2
U9G C36A C57U G59A G74A C85G U90A C95A C114U A150U | ≤ -4.2
C8A G58A A60C C63U C85G | ≤ -4.2
C8U C38U G48A A60C C72G C96A C99U C114G U139G U148G | ≤ -4.2
C8G U31A C57U C76U U78C C116U | ≤ -4.2
C8G C85U G88U U145C | ≤ -4.2
C8U A24U C51G G84U C103G A119G C125U | ≤ -4.2
C8G A17C C18G A41C A52U G83A G140U | ≤ -4.2
U9A A22U A39U C57A A73U G92A C93U A137U | ≤ -4.2
C8U G84A G136C | ≤ -4.2
C8G C76A G92U C123A A150U | ≤ -4.2
U9C A22C G92A G124C A147U | ≤ -4.2
C8A A30C G46A C54G G92U C95G | ≤ -4.2
U9G C14A C85U G141U | -4.19
C8U C43U | ≤ -4.2
C8U C18G A41C C51G C57U G67C C95A | ≤ -4.2
C8U C27G A40G U78G C85G A98C A150G | ≤ -4.2
C8G A28C C72A U82A C87G G112U G133A A142C U148C A150C | ≤ -4.2
C8G G34A G50A U55A C76A C87A C96U C116G | ≤ -4.2
C8A A28G C93U C123A | ≤ -4.2

Variant | polymerase ribozyme fitness (log ratio)
U9A C27A C32G A40G U55A G83A G136C G141U G143U U148A | ≤ -4.2
C8A G25A U31A C51A A52C G59U A60C G92C | ≤ -4.2
U9A C35A U55C A64C G94U G136A | ≤ -4.2
U9A C36A C72G G92A C129A A137U | ≤ -4.2
U9G C87U | -4.11
C8A C75A G88U A150G | ≤ -4.2
C8U G88U C93U | -4.14
C8G A20U A47C A73G C87A C108G C116U G141A | ≤ -4.2
U9C A12U A41G U44G C51A C75A C87G A113G G141A | ≤ -4.2
C8U A24U C32G G70A G83U A98C A150C | ≤ -4.2
U9G A21C C35U C85G | ≤ -4.2
U9C A138G | ≤ -4.2
U9C A30U G58A C93G | ≤ -4.2
C8G U13G A23G G48U C57A C87A G126C | ≤ -4.2
C8A A29C A47C C54G A120U | ≤ -4.2
C8A U55A G84U C85A | ≤ -4.2
C8G G88U C118G | ≤ -4.2
U9G C10G C87G C93U G124C | ≤ -4.2
C8U U56A | -3.09
U9A U31G G58U A73U C123U U135A | ≤ -4.2
U9G C27G U31G U61G C75G G94A C105U | ≤ -4.2
C8U C10A U31C A91U C108A U109G G126A G143A U145G U148A | ≤ -4.2
U9G C43U G84C A119G | ≤ -4.2
C8G G67U A91C A120C | ≤ -4.2

Variant | polymerase ribozyme fitness (log ratio)
U9C G59U A60C G74C C131U | ≤ -4.2
U9C G94A U144A | ≤ -4.2
U9G A30G G62C C95U G141A | ≤ -4.2
U9G A29U U31A U77C C93G G126U | ≤ -4.2
U9A A17U C18G A22U G140C | ≤ -4.2
C8U A20U G46C G59U A60C C63U G83U C87U A97U U145A | ≤ -4.2
C8G G46C U77C G84A C103U A113C A137C | ≤ -4.2
U9C G83C C87G | ≤ -4.2
C8G C35U C85G G88U U134A | ≤ -4.2
U9A A17C A20C C54U U55G G58A G67A C116G G143A | ≤ -4.2
U9A A19U A21U A60G C87G A115C G141U U144G | ≤ -4.2
C8A A30G A40U C79A U82C | ≤ -4.2
C8G A26C | ≤ -4.2
C8A G59C G94C A113G | ≤ -4.2
C8U A28U G62U A113C | ≤ -4.2
C8A A142C | -4.11
U9C A40U C76A C93U G141A | ≤ -4.2
C8U C10G G11C A49C G81C C93A A107C C118U | ≤ -4.2
C8A C14A A21C A29G A47C A97G A106C U127G A137C | ≤ -4.2
U9A A49C A66G A120C | ≤ -4.2
C8G A19U C72U C87G G100A C108A C125G A150C | ≤ -4.2
U9G C27G U82C C96A C105U G140A U144A U148C | ≤ -4.2
U9A G68A C85G A106G A137G A138U | ≤ -4.2
